Publication PMC4336329 (PLoS ONE, 2015)
About 2,200 (0.71%) of roughly 310,000 compounds showed an effect of 50% or more. The effect is printed as a negative number. Some of the results follow. Where a SMILES comes first, the peptide text is derived from it. The star is where a group is joined. Boc = CC(C)(C)OC(=O)*

target: human ether-à-go-go-related gene (hERG) potassium channel (human, UniProt Q12809); assay: primary screen, population patch clamp on CHO cells stably expressing hERG
Sequence (Q12809 whole entry, looked up): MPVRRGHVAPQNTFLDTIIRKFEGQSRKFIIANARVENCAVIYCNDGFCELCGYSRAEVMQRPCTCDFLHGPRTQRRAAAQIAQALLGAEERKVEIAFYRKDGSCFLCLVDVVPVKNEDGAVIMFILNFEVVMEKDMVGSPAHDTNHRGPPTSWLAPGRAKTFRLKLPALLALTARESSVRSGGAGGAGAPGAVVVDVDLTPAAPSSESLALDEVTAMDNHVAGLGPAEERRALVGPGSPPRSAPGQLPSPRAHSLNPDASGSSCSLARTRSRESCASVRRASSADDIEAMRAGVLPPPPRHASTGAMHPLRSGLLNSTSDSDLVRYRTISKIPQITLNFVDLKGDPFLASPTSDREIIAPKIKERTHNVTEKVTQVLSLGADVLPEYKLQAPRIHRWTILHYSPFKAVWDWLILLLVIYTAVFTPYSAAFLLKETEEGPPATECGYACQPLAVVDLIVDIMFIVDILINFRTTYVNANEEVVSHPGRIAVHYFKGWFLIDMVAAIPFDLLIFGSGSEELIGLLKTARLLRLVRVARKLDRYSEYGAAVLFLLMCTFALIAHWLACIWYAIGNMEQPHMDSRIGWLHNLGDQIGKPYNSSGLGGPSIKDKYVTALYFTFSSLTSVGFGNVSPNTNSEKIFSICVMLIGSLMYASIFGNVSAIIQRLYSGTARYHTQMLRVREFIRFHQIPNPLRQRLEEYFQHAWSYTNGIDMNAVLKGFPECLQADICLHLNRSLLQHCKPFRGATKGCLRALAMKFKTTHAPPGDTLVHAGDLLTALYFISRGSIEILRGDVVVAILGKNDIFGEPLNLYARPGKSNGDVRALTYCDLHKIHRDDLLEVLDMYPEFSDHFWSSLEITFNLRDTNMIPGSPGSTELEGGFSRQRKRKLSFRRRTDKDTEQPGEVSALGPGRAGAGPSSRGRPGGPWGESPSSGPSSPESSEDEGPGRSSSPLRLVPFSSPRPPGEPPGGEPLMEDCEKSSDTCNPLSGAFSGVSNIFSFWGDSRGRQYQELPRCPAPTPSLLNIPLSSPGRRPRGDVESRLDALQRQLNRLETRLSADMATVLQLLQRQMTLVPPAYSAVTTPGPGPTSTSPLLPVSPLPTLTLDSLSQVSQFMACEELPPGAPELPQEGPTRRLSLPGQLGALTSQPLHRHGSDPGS

| SMILES | hERG current change (%, negative = inhibition) at 1uM |
| --- | --- |
| COc1ccc(CNC(=O)c2ccccc2C(=O)O)cc1 | 0.458% |
| CCN(C(=O)CN1C(=O)c2ccccc2S1(=O)=O)C1CCCCC1 | -3.31% |
| O=C(CCc1ccccc1)NNC(=O)c1ccco1 | 12.2% |
| CC(C)c1ccc(N2CC(C)(C)C2=O)cc1 | 9.3% |
| O=C(NCCNC(=O)c1ccccn1)c1ccc(F)cc1 | 16.3% |
| O=S(=O)(c1ccccc1)c1cnc(-c2ccccc2)nc1N1CCCCC1 | 18.7% |
| CCOC(=O)CC(NC(=O)c1cccs1)c1ccc(C)cc1 (stereo not shown) | 18.1% |
| CC(C)(C)c1cc(C(=S)N2CCCC2)cc(C(C)(C)C)c1O | 22.3% |
| COc1ccc(C(=O)NNC(=O)CSc2nnnn2C)cc1 | 2.17% |
| COc1cccc(C2C(=O)c3ccccc3C2=O)c1 | 16.8% |
| NC(=O)C1CCN(CC(=O)Nc2cc(S(=O)(=O)N3CCOCC3)ccc2N2CCCC2)CC1 | -1.18% |
| Cc1ccc(-c2nn3cnnc3c3ccccc23)cc1 | 2.01% |
| O=C(COC(=O)c1ccc(O)cc1)Nc1ccccc1-c1ccccc1 | 4.16% |
| CC(C)c1nc(SCC(=O)Nc2cccc(C(F)(F)F)c2)c2c(=O)n(C)c(=O)n(C)c2n1 | -1.24% |
| O=C(Cn1cc(C(=O)c2cccs2)c2ccccc21)NC1CCCCC1 | 1.49% |
| O=C(NCc1ccc(F)cc1)C1CCCN1C(=O)Nc1ccc(Cl)cc1 (stereo not shown) | 9.95% |
| Cn1cnnc1SCC(=O)NC1CCCCCC1 | 12.2% |
| CC(=O)Nc1cccc(-c2csc(Nc3ccc(Cl)cn3)n2)c1 | 2.04% |
| COC(=O)C(Cc1ccccc1)NC(=O)C(CC(C)C)NC(=O)OC(C)(C)C (stereo not drawn) (Boc-Leu-Phe-OMe; configuration not given here) | 14.2% |
| COc1ccccc1C(=O)O/N=C(\c1ccccc1)c1ccncc1 | 9.94% |
| CCc1ccccc1NC(=S)NCCSc1ccc(Cl)cc1 | 12.6% |
| Cc1ccc2nc(/C(C#N)=C/c3ccccc3C(=O)O)[nH]c2c1 | 11.5% |
| Cc1cnc(C)c(N2CCN(Cc3nc(-c4cccc(F)c4F)oc3C)CC2)n1 | -0.107% |
| CCCCCCn1c(N2CCC(C(N)=O)CC2)nc2c1c(=O)n(C)c(=O)n2C | -2.94% |
| CC(C)(C)OC(=O)N[C@@H](Cc1ccccc1)C(=O)N1CCC(C(=O)N[C@@H](CCC(N)=O)C(=O)O)CC1 | 7.05% |
